{"source": "patent US10485854B2", "about": "“Method of reducing biofilms” (Lysando AG, priority 2010, dated 2019)", "molecules": {"B1": {"name": "Pentapeptide-Ply511: fusion protein SEQ ID NO: 141: endolysin Ply511 (SEQ ID NO: 85) with hydrophobic peptide Phe-Phe-Val-Ala-Pro (SEQ ID NO: 135) (protein)", "chain": "MFFVAPGSVKYTVENKIIAGLPKGKLKGANFVIAHETANSKSTIDNEVSYMTRNWKNAFVTHFVGGGGRVVQVANVNYVSWGAGQYANSYSYAQVELCRTSNATTFKKDYEVYCQLLVDLAKKAGIPITLDSGSKTSDKGIKSHKWVADKLGGTTHQDPYAYLSSWGISKAQFASDLAKVSGGGNTGTAPAKPSTPAPKPSTPSTNLDKLGLVDYMNAKKMDSSYSNRDKLAKQYGIANYSGTASQNTTLLSKIKGGAPKPSTPAPKPSTSTAKKIYFPPNKGNWSVYPTNKAPVKANAIGAINPTKFGGLTYTIQKDRGNGVYEIQTDQFGRVQVYGAPSTGAVIKK", "modifications": "Pentapeptid-Ply 511"}, "B2": {"name": "POLY-gp144: fusion protein SEQ ID NO: 35: endolysin phiKZgp144 (SEQ ID NO: 1) with N-terminal peptide KRKKRKKRK (SEQ ID NO: 11) (protein)", "chain": "MGSKRKKRKKRKKVLRKGDRGDEVCQLQTLLNLCGYDVGKPDGIFGNNTFNQVVKFQKDNCLDSDGIVGKNTWAELFSKYSPPIPYKTIPMPTANKSRAAATPVMNAVENATGVRSQLLLTFASIESAFDYEIKAKTSSATGWFQFLTGTWKTMIENYGMKYGVLTDPTGALRKDPRISALMGAELIKENMNILRPVLKREPTDTDLYLAHFFGPGAARRFLTTGQNELAATHFPKEAQANPSIFYNKDGSPKTIQEVYNLMDGKVAAHRK", "modifications": "POLY-gp144"}}, "key": {"[1]": {"system": "biofilm of the Pseudomonas aeruginosa strains 2572 and 2573", "assay": "Biofilm reduction, crystal violet assay", "settings": "1.25 μg PK-Peptide, 12 h"}, "[2]": {"system": "biofilm of the Acinetobacter baumannii strain DSMZ30007", "assay": "Biofilm reduction, crystal violet assay", "settings": "1.25 μg PK-Peptide, 12 h"}, "[3]": {"system": "biofilm of the Staphylococcus aureus strain KS13", "assay": "Biofilm reduction, crystal violet assay", "settings": "1.25 μg PK-Peptide, 12 h"}, "[4]": {"system": "Acinetobacter baumannii (DSMZ 30007)", "assay": "Antibacterial activity, 1 hour incubation with 100 μg/ml protein, residual colony count", "format": "cell-based", "settings": "undialyzed protein 100 μg/ml, room temperature (Table 18)"}, "[5]": {"system": "Burkholderia solanacearum", "format": "cell-based", "settings": "undialyzed protein 100 μg/ml; 1 hour, room temperature (Table 18)"}, "[6]": {"system": "P. aeruginosa PAO1p cells", "assay": "Antibacterial activity, 1 hour incubation with 100 μg/ml protein, residual colony count"}, "[7]": {"system": "biofilm of the Listeria monocytogenes strain ScottA", "assay": "Biofilm reduction, crystal violet assay", "settings": "25 μg/well, 12 h"}, "[8]": {"system": "chloroform-permeabilized P. aeruginosa PAO1p cells", "assay": "Muralytic activity of P. pastoris expression supernatant (drop in optical density)", "format": "biochemical, Pseudomonas aeruginosa"}}}
{"molecule": "PK-peptide: the peptide PK alone; PK denotes the polycationic 9-mer Lys-Arg-Lys-Lys-Arg-Lys-Lys-Arg-Lys (SEQ ID NO: 11) (KRKKRKKRK) [reference compound]", "values": [{"measurement": "effect on biofilm (crystal violet, absorption 590 nm)", "setting": "[1]", "result": "seems to enhance the formation"}, {"measurement": "effect on biofilm (crystal violet, absorption 590 nm)", "setting": "[2]", "result": "seems to enhance the formation"}, {"measurement": "effect on biofilm (crystal violet, absorption 590 nm)", "setting": "[3]", "result": "seems to enhance the formation"}]}
{"molecule": "phiKZgp144: unmodified modular endolysin of Pseudomonas aeruginosa phage φKZ, SEQ ID NO: 1 [reference compound]", "values": [{"measurement": "Reduction [%]", "setting": "[4]", "result": 0, "unit": "%"}, {"measurement": "Reduction [%]", "setting": "[5]", "result": 0, "unit": "%"}, {"measurement": "antibacterial activity as the relative inactivation (%)", "setting": "[6]; exponentially growing cells, undialyzed protein 100 μg/ml, room temperature (Table 6)", "result": "0 ± 15", "unit": "%"}, {"measurement": "Reduction [%]", "setting": "[6]; undialyzed protein 100 μg/ml, room temperature (Table 7)", "result": 0, "unit": "%"}, {"measurement": "Reduction [%]", "setting": "[6]; undialyzed protein 100 μg/ml, room temperature (Table 18)", "result": 0, "unit": "%"}]}
{"molecule": "B1", "values": [{"measurement": "reduction of biofilm (crystal violet, absorption 590 nm)", "setting": "[7]", "result": "massive reduction"}]}
{"molecule": "B2", "values": [{"measurement": "enzymatic (muralytic) activity in supernatant", "setting": "[8]; 30 μl supernatant after 1 day of expression, pH 6.2", "result": "limited enzymatic activity"}, {"measurement": "enzymatic (muralytic) activity in supernatant", "setting": "[8]; 30 μl supernatant after 3 days of expression, no significant increase at the fourth day", "result": "maximum activity"}, {"measurement": "inactivation level in log units", "setting": "[6]; protein dialyzed to 50 mM KH2P04/K2HP04 pH 7 instead of undialyzed", "result": "3.9±0.2", "unit": "log units"}]}
